# Source: PubChem BioAssay AID485344 (National Center for Advancing Translational Sciences (NCATS), 2010)
# About 6,900 (2%) of roughly 340,000 compounds were called active. Rule as the data show it: active = inhibition above about 30%; inactive = below that, where a call was filed. Only a part is listed here, and it is no random draw. The source gives no active or inactive call for entries shown without one.
# Target: D(2) dopamine receptor (Homo sapiens) (UniProt P14416)
# Test: HTS Assay for Allosteric Antagonists of the Human D2 Dopamine Receptor: Primary Screen for Antagonists; also: 0% is about no effect
# Conditions: HEK293 TREx D2 cells, calcium flux, dopamine EC80; at 10 µM; stronger effect = higher value
# Procedure, shortened: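 In this primary screen, negative modulation is detected by tracking calcium flux after an EC80 dopamine challenge in inducible HEK293 T-REx D2 cells preexposed to test compound for 180 s.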
# Sequence of UniProt P14416 (P14416 whole entry, looked up): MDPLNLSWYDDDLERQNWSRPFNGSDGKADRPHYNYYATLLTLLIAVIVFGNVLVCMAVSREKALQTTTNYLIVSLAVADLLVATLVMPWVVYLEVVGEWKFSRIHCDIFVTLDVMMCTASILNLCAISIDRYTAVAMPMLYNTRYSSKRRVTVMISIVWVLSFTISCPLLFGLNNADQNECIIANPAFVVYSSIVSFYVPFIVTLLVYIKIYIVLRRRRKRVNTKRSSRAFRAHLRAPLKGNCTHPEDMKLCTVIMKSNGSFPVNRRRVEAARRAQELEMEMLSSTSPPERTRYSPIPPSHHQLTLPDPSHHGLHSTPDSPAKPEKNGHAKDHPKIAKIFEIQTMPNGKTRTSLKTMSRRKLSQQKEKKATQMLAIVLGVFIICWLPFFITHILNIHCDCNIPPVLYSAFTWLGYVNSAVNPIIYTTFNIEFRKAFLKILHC
row,SMILES,inhibition
1,CC(=O)N1CCCc2cc(S(=O)(=O)N3CCC(C(=O)NCCC(C)C)CC3)ccc21,0.391%
2,O=C(NC1CC(=O)N(c2ccc(F)cc2)C1)c1cc2ccccc2o1 (stereo unspecified),-14.5%
3,CC(C)CCCN1CCN=C1Nc1ccccc1,active: 39%
4,COc1ccc(-c2cc(C(=O)Nc3c(C(=O)c4ccc(Cl)cc4)oc4ccccc34)no2)cc1,3.04%
5,CCOC(=O)c1cc2c(=O)n3ccccc3nc2n(CC2CCCO2)c1=NC(=O)c1cccc(C(F)(F)F)c1 (stereo unspecified),-7.6%
6,Cc1cccc(NC(=O)c2cnn(-c3ccccc3)c2-n2cccc2)c1C,-21.5%
7,O=C(O)c1cc(-c2cccs2)nc2ccc(Br)cc12,active: 33.6%
8,CCOC(=O)N1CCN(S(=O)(=O)N2CCCC(C(=O)NCc3cccc(OC)c3)C2)CC1 (stereo unspecified),-20.4%
9,CCC1CN(C(=O)N2CCC(C(=O)NCc3ccc(C)o3)CC2)c2cc(C)ccc2O1 (stereo unspecified),17.8%
10,CCOC(=O)c1ccc(NC(=O)C2Cc3ccccc3CN2S(=O)(=O)c2ccc(Cl)cc2)cc1 (stereo unspecified),13.7%
11,CC(NC(=O)Cn1ncc2c3ccccc3n(Cc3ccc(F)cc3)c2c1=O)c1ccccc1 (stereo unspecified),3.29%
12,O=C(NCC(c1cccs1)S(=O)(=O)c1cccs1)c1ccccc1 (stereo unspecified),12.2%
13,COc1ccc(Cl)cc1NS(=O)(=O)c1cc(-c2cc(C)no2)ccc1C,10.3%
14,Cc1cc(Br)ccc1NC(=O)CCS(=O)(=O)c1cccc2nonc12,-5.79%
15,Cc1cc(C)c(Cn2c(C)c(CNCCCc3ccccc3)c(C(=O)O)c2C)c(C)c1,-6.73%
16,CC(=O)c1sc2c(c1C)c(=O)n(-c1ccc(Cl)cc1)c(=O)n2Cc1ccc(Cl)cc1,2.22%
17,Cc1ccc(C)c(N2CCN(C(=O)CN3C(=O)COc4ccc(S(=O)(=O)N5CCCCCC5)cc43)CC2)c1,7.21%
18,O=C(c1cccs1)N1CCN(Cc2cccnc2)CC1,active: 58.8%
19,CCOC(=O)c1c(NC(=O)c2noc3c2CC(C(C)(C)C)CC3)sc2c1CCCC2 (stereo unspecified),28.1%
20,COc1cc2c(=O)c(S(=O)(=O)c3ccc(F)cc3)cn(Cc3ccccc3C)c2cc1OC,0.261%
21,Cc1ccc(-n2cc(-c3ccccc3)c3c(NC4CCCC4)ncnc32)cc1,-3.07%
22,Cc1ccc(-c2noc(-c3ccc(N4CCC(C)CC4)c([N+](=O)[O-])c3)n2)cc1,-5.75%
23,Cc1cccc(N(C)C(=O)CN2C(=O)COc3ccc(S(=O)(=O)N4CCCCCC4)cc32)c1,-6.37%
24,Cn1c(CNC(=O)CSc2n[nH]c(-c3ccccc3Cl)n2)nc2ccccc21,-24%

row,SMILES,inhibition
1,COc1cc(OC)c(OC)cc1CNCCSc1nnnn1-c1ccccc1,8.63%
2,CC(C)Cn1nc(C(=O)NCc2ccccc2CN2CCCC2)c2ccccc2c1=O,active: 44.9%
3,CCN(Cc1ccccc1)C(=O)C1CCN(c2ncnc3c2nc2n3CCCCC2)CC1,-2.95%
4,COc1cccc(CNC(=O)c2cc3cccc4c3n2CC(C)S4)c1OC (stereo unspecified),1.79%
5,C#CCn1c(COc2ccccc2C)nc2ccccc21,2.11%
6,CC1CC(C)CN(C(=O)/C=C/c2ccc(S(=O)(=O)N3CCOCC3)cc2)C1 (stereo unspecified),active: 30.4%
7,Nc1nc(Nc2cccc(C(F)(F)F)c2)sc1C(=O)c1ccccc1,-0.927%
8,Cc1cc(C)c2c(CC(=O)Nc3ccc(S(=O)(=O)N4CCCC(C)C4)cc3)coc2c1 (stereo unspecified),7.52%
9,Cc1ccc(OCC(=O)Nc2cccc(OCc3cc(=O)n4ccccc4n3)c2)cc1C,11%
10,CCOc1cc(C2Nc3ccccc3-c3nnc(SCc4ccccc4)nc3O2)ccc1OC (stereo unspecified),4.18%
11,Cc1cc(Br)ccc1NC(=O)C(Cc1ccccc1)NS(=O)(=O)c1ccc(Br)s1 (stereo unspecified),14.8%
12,CCN(CC(=O)NC(c1ccccc1)c1ccccc1)Cc1nc2ccccc2c(=O)[nH]1,active: 32.4%
13,CCC(C(=O)Nc1ccc(C(=O)OC)cc1)n1nc(-c2ccc(C)cc2)c2c(c1=O)CCCC2 (stereo unspecified),6.65%
14,O=C(Nc1ccc(Cl)cc1F)c1oc(=O)c2ccccc2c1-c1ccccc1,-2.01%
15,O=C(NCc1ccc(Cl)cc1)c1ccc(CSCc2cccc(Cl)c2)o1,6.42%
16,Cc1ccccc1OC(=O)c1snnc1C,6.26%
17,COc1cccc(-n2cnnn2)c1,active: 37.5%
18,Cc1ccnc(NS(=O)(=O)c2ccc(NC(=O)C(C)(C)Oc3ccc(Cl)cc3)cc2)n1,-2.86%
19,COc1ccc(OCc2nc3ccccc3n2C(C)c2ccccc2)cc1 (stereo unspecified),10.2%
20,CCOc1ccccc1NC(=O)CSc1nc2c(c(=O)[nH]1)CCC2,27.6%
21,CCOc1ccc(S(=O)(=O)N2CCN(c3cc(Cl)ccc3Cl)CC2)c2ccccc12,1.8%
22,O=c1[nH]c2ccc(NCc3ccc(-c4cccc(Cl)c4)o3)cc2[nH]1,-12.7%
23,CCc1ccccc1NC(=O)C(CC)Sc1ncnc2c1sc1ccccc12 (stereo unspecified),20.5%
24,O=C(CCCCCn1c(=O)[nH]c2ccccc2c1=O)NCc1cccc(Cl)c1,18.1%

row,SMILES,inhibition
1,Cc1ccc(NC(=O)CN2C(=O)C(c3ccc(F)cc3)=NC23CCCCC3)c(C)c1,10.1%
2,Cn1c(=O)c2c(SCC(=O)N3CCc4ccccc43)nc(-c3cccc(F)c3)nc2n(C)c1=O,1.82%
3,CCOc1ccccc1CNC(=O)C1CCN(S(=O)(=O)c2cccc3nonc23)CC1,3.67%
4,O=C(Nc1ccc(Br)cc1)C1CCCN(S(=O)(=O)c2ccc(Br)s2)C1 (stereo unspecified),-13.6%
5,CCn1c(=O)c2sccc2n2c(CCCC(=O)N3CCN(c4ccc(OC)cc4)CC3)nnc12,-12.8%
6,COc1ccc(N2CCN(C(=O)c3c(C)oc4ncnc(N5CCCCC5)c34)CC2)cc1,-0.481%
7,CCc1cccc(NC(=O)c2nnn(Cc3ccc(SC)cc3)c2N)c1,6.23%
8,Cc1cccc(N2CCN(C(=O)C3CCCN(S(=O)(=O)c4cccc5nsnc45)C3)CC2)c1C (stereo unspecified),15.9%
9,O=C1CC(c2ccccc2)Cc2[nH]c(=O)c(C(=O)Nc3ccc(OC(F)(F)F)cc3)cc21 (stereo unspecified),-4.92%
10,Cc1ccc(Nc2ncnc3c2cnn3-c2ccccc2)c(C)c1,4.29%
11,Cc1cccc(-c2noc(CCCC(=O)NCc3ccco3)n2)c1,-1.61%
12,COCCn1c(CCC(=O)Nc2cc(C)ccc2C)nc2cccnc21,-3.95%
13,CCN(c1ccccc1)S(=O)(=O)c1cc(-c2onc(C)c2C)ccc1OC,-19.9%
14,Cc1ccc(C)c(Cn2c(C(C)NC(=O)c3ccc(F)cc3)nc3ccccc32)c1 (stereo unspecified),2.88%
15,Cc1c2cnn(CC(=O)N3CCN(c4ccccc4)CC3)c(=O)c2c(C)n1Cc1ccc(F)cc1,-1.53%
16,CCOc1ccccc1NC(=O)CCS(=O)(=O)c1cccc2nsnc12,-9.13%
17,CCNc1nc(NCC)nc(N/N=C/c2ccc(O)c(O)c2)n1,active: 43.6%
18,COc1cccc(NC(=O)CCS(=O)(=O)c2ccc3c(c2)oc(=O)n3C)c1,0.122%
19,COc1ccc(NC(=O)Cn2c(=O)n(CCCC(=O)NCc3ccccc3OC)c(=O)c3ccccc32)cc1Cl,-8.72%
20,Cn1c(NCCCCO)nc2c1c(=O)n(Cc1ccc(Cl)cc1)c(=O)n2C,5.75%
21,O=C(Cn1cc(S(=O)(=O)Cc2ccccc2Cl)c2ccccc21)NCc1ccccc1Cl,-12.2%
22,OC1(c2ccccc2)CCN(Cc2ccccc2)C2CCCCC21 (stereo unspecified),active: 38.1%
23,CCc1nn(CC(=O)NC(C)CCc2ccccc2)c(=O)c2cc3cc(F)ccc3n12 (stereo unspecified),-0.489%
24,CCc1nnc(NC(=O)c2nc(S(=O)(=O)Cc3cccc(C)c3)ncc2Cl)s1,-12.3%

row,SMILES,inhibition
1,NC(=O)CSc1oc(-c2ccco2)nc1S(=O)(=O)c1ccc(Br)cc1,5.86%
2,CCCCn1cc(S(=O)(=O)c2ccc(C)c(C)c2)c(=O)c2cc(F)c(N3CCN(C)CC3)cc21,2.41%
3,O=C(CN1C(=O)CCSc2ccc(S(=O)(=O)N3CCCC3)cc21)Nc1ccccc1,-22.2%
4,CCn1cc(C(=O)NCCCOC(C)C)c(=O)c2cc(S(=O)(=O)N3CCc4ccccc4C3)ccc21,6.55%
5,CCC(Oc1ccccc1)C(=O)Nc1ccc(O)c(-c2nc3cc(C)ccc3o2)c1 (stereo unspecified),-12.3%
6,CCC(C(=O)Nc1ccccc1C(=O)OC)n1c(C)c2cnn(-c3ccccc3)c(=O)c2c1C (stereo unspecified),3.8%
7,COc1ccc(N=C(N)SCc2ccccn2)cc1,active: 44.6%
8,CC(=O)c1ccc(N2CCN(S(=O)(=O)c3c(C)nc4sc(C)cn4c3=O)CC2)cc1,11.2%
9,Cc1cccc(OCc2cc(=O)n3c(-c4ccccc4)csc3n2)c1C,1.46%
10,CCCn1c(SCc2nc(-c3ccccc3C)no2)nnc1-c1ccc(Cl)cc1,12.1%
11,CCOC(=O)c1[nH]c(C)c(CCC(=O)Nc2c(C)cc(C)cc2C)c1C,9.42%
12,Cc1cccc(N2CCN(C(=O)C3CCC(CNS(=O)(=O)c4ccc(Br)s4)CC3)CC2)c1C (stereo unspecified),3.37%
13,CCc1nn(CC(=O)N2CCN(c3cccc(C)c3C)CC2)c(=O)c2cc3occc3n12,-7.69%
14,COc1ccc(N2C(=O)CSC23C(=O)N(CC(=O)NC2CCCCC2)c2ccccc23)cc1 (stereo unspecified),4.9%
15,COc1ccc(Cn2c(C(=O)O)c(CNCc3cccc(OC)c3)c3ccc(C)cc32)cc1,2.17%
16,O=C1c2oc3ccccc3c(=O)c2C(c2ccc(Br)cc2)N1c1ccccn1 (stereo unspecified),-12.2%
17,CCCCN(CC)CCNC(=O)Cn1cnc2sc(C)c(S(=O)(=O)N3CCC(C)CC3)c2c1=O,-1.87%
18,Cc1ccc(S(=O)(=O)N2CCN(C(=O)COC(=O)CNC(=O)c3ccccc3)CC2)c(C)c1,active: 32.7%
19,CCOc1ccc(NC(=O)CC2C(=O)N(c3ccccc3)C(=O)N2CCc2ccc(OC)cc2)cc1 (stereo unspecified),8.82%
20,COC(=O)c1cnn(-c2ccc(C(=O)Nc3cccc(C(C)=O)c3)cc2)c1N,21.2%
21,Cn1c(=O)oc2cc(S(=O)(=O)N3CCC(C(=O)NCc4ccccc4Cl)CC3)ccc21,-18.5%
22,Cc1ccc(NC(=O)Cn2nc(C)c3nn(-c4ccc(Cl)cc4)c(C)c3c2=O)cc1C,3.86%
23,O=C1CN(C(=O)Cc2ccc(F)cc2)C(c2ccccc2)c2cc(Br)ccc2N1 (stereo unspecified),2.75%
24,Cc1ccc2c(=O)c(C(=O)c3ccccc3)cn(CC(=O)Nc3ccc4c(c3)OCCO4)c2n1,-13%
